Among all 310,000 compounds or so, about 14,000 (4.5%) showed an effect of 50% or more. The effect is printed as a negative number. The list shows a part of the results.
Each molecule was assayed against human ether-à-go-go-related gene (hERG) potassium channel (human, UniProt Q12809) (assay: primary screen, population patch clamp on CHO cells stably expressing hERG).
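Further: peak tail current of the secondary pulse compared with the same well before compound.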

Chain of human ether-à-go-go-related gene (hERG) potassium channel (Q12809 whole entry, looked up): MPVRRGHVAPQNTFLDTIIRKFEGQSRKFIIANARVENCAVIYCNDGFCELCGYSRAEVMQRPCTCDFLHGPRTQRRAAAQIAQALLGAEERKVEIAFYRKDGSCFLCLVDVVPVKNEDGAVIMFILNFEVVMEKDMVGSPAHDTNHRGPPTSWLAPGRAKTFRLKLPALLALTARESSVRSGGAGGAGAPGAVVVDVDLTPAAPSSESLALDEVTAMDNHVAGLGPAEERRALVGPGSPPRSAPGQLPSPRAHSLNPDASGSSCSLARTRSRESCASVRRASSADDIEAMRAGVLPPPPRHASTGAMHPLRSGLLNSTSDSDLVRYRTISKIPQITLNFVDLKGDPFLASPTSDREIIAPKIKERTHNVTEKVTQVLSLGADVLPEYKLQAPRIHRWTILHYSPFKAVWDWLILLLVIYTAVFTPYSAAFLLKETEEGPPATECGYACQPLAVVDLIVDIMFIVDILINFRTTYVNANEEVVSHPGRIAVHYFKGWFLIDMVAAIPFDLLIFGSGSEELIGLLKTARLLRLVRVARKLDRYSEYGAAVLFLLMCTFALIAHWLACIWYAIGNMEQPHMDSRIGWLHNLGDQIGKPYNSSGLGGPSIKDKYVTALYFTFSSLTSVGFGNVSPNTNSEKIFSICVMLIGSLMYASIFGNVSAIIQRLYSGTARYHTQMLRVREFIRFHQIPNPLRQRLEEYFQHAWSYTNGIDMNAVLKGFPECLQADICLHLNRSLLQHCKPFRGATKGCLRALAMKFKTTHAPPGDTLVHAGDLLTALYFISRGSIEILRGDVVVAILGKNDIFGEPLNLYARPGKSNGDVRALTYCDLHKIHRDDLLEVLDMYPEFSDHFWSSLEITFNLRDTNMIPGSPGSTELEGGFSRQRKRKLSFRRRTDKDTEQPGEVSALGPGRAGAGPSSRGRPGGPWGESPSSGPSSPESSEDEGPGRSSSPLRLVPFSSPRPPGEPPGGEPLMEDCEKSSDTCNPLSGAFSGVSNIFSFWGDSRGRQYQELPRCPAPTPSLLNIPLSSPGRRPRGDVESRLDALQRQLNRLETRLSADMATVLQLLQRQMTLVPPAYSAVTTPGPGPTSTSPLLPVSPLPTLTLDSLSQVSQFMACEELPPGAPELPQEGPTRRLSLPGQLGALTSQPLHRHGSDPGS

SMILES | hERG current change (%, negative = inhibition) at 10uM [%]
O=C1NCCCC1C(=O)N/N=C/c1cccc(O)c1 (centres unmarked) | 18.5
CC(=O)c1c(C)[nH]c(C(=O)Nc2ccc(S(=O)(=O)N(C)C)cc2)c1C | 1.65
COc1ccc(C)cc1S(=O)(=O)N(CC(=O)N1CCOCC1)c1cc(C)cc(C)c1 | -77.4
CCOc1ccccc1N(CC(=O)Nc1ccccc1)S(=O)(=O)c1ccccc1 | 15.6
O=S(=O)(NCc1ccc(F)cc1)c1ccc(-n2cccn2)cc1 | -6.52
O=C1NCCCc2c1oc1ccc(O)cc21 | 28.2
O=C1CCC(C(=O)Nc2cc(C(F)(F)F)ccc2-n2cncn2)=NN1 | -4.78
N#Cc1c(N2C(=O)c3ccc(C(=O)O)cc3C2=O)sc2c1CCCC2 | 22
Nc1nc(SCC(=O)N2CCCc3ccccc32)[nH]c(=O)c1-c1ccccc1 | 8.94
CS(=O)(=O)CCSc1ncccc1C(=O)NCc1cccs1 | -23.8
CC(C)n1cc(C(=O)NC2CC(C)(C)Cc3c2cnn3-c2ccccc2)cn1 (centres unmarked) | 5.72
O=C(CCn1c(=O)oc2ccc(Cl)cc21)NCCCN1CCOCC1 | 17.1
CC1(C)CC(=O)C=C(c2cccc3c2Oc2ccccc2S3)C1 | -1.31
CCOc1ccc(CNc2ccc3c(c2)ncn3C)cc1 | -46.6
N#CCNc1ccc([N+](=O)[O-])cc1C#N | -6.8
Cc1sc2nc(CSc3nc4ccccc4c(=O)n3CCCN3CCOCC3)[nH]c(=O)c2c1C | -31.9
O=C(COC(=O)Cc1ccc(Br)cc1)NCC1CCCCC1 | 14.7
O=C(CN1CC(=O)Oc2ccccc21)OCC(=O)c1cccc(Br)c1 | 16.7
CCN(CC)S(=O)(=O)c1ccc(N2CCOCC2)c(NC(=O)c2cccc3ccccc23)c1 | 7.99
CCOC(=O)/C(C#N)=C/c1ccc(OCC(=O)Nc2ccc(OC)cc2)c(OC)c1 | 19.2
C=CCSc1nnc(-c2ccc(Cl)cc2Cl)o1 | -20.4
Cc1ccc(C)c(NC(=O)C(OC(=O)c2ccc(NC(=O)CC#N)cc2)c2ccccc2)c1 (centres unmarked) | 0.752
N#C/C(=C\c1ccccc1)C(=O)N1CCC(C(N)=O)CC1 | 15.6

SMILES | hERG current change (%, negative = inhibition) at 10uM [%]
COC(=O)c1ccc(C2C3=C(Nc4nnnn42)c2ccccc2OC3)cc1 (centres unmarked) | -0.518
CCOC(=O)C1CCN(C(=O)CN2C(=O)c3ccccc3S2(=O)=O)CC1 | 6.4
O=C1NC(c2cccs2)Nc2sc3c(c21)CCCC3 (centres unmarked) | 6.66
NC(=O)C1CCN(C(=O)C(Cc2ccccc2)NC(=O)c2ccccc2)CC1 (centres unmarked) | 16.5
O=C(Cn1[nH]c(=O)c2ccccc2c1=O)Nc1ccc(-c2nnc3n2CCCCC3)cc1 | 13
Cc1cc(C(C)(C)C)oc1C(=O)N(CC(=O)NC1CCCC1)c1cccc(C(F)(F)F)c1 | 16.1
CC(=O)NCCCc1nc2ccccc2n1Cc1c(F)cccc1Cl | -27.6
COc1ccc(NC(=O)C2CCN(C(=O)NC3CCCCC3)CC2)c(OC)c1 | -18.4
O=[N+]([O-])c1cc(Cl)ccc1Nc1ccccc1 | 9.85
Cc1cc(C)nc(SCCS(=O)(=O)Cc2ccccc2)n1 | -1.06
C=CCCCCCCCCc1nc(SCC(=O)O)n[nH]1 | -4.13
CC(=O)Nc1ccc(-c2csc(NCc3ccccc3)n2)cc1 | 1.03
Cc1ccc(C(=O)N2CCCC(CCC(=O)N3CCN(c4ccccn4)CC3)C2)cc1C (centres unmarked) | -34.9
COc1ccccc1C(=O)Nc1ccc(Br)c2cccnc12 | 27.2
CCOC(=O)c1cc(NC(=O)Cc2ccc(S(=O)(=O)N3CCOCC3)s2)cc(C(=O)OCC)c1 | 3.99
O=C1OCC2=C1C(c1ccccc1)CC(=O)N2c1cccc(F)c1 (centres unmarked) | 13
COc1cccc(/C=N/Nc2nc(Nc3ccc([N+](=O)[O-])cc3)nc(N3CCCC3)n2)c1O | 13.8
CCc1ccccc1NC(=O)CN1C(=O)c2ccccc2S1(=O)=O | 17.3
COc1ccc(C(=O)COC(=O)c2cc(=O)[nH]c3ccccc23)c(OC)c1 | 8.57
C=CCn1cccc(C(=O)Nc2cc(OC)cc(OC)c2)c1=O | -2.4
Cn1c(SCC(=O)N2CCCc3ccccc32)nnc1-c1cccs1 | -26.1
CC(=O)C1C(c2ccc3ncccc3c2)NC(=O)NC1(O)C(F)(F)F (centres unmarked) | 10.9
CC(=O)Nc1cccc(NC(=O)c2ccccc2OCc2c(C)noc2C)c1 | -13.9

SMILES | hERG current change (%, negative = inhibition) at 10uM [%]
CN(C)S(=O)(=O)c1cccc(NC(=O)CCc2c[nH]c3ccccc23)c1 | -21.8
C=CCNC(=O)CC(=O)N/N=C/c1ccc(F)cc1 | -3.54
Cc1nc2cc(NC(=O)COc3ccc(C#N)cc3)ccc2n1-c1ccccc1 | -21.1
CO/N=C(\N)c1nonc1N | 0.407
CCCCn1c(N)c(N(CCOC)C(=O)c2c(-c3ccccc3)noc2C)c(=O)[nH]c1=O | 2.61
CCOC(=O)c1c(C)[nH]c(C(=O)CN2CC(C)OC(C)C2)c1C (centres unmarked) | -4.57
COc1ccc(-c2nnn3c2nc(NCc2ccccc2)c2ccccc23)cc1 | 12.4
COc1ccc(C(=O)NCCS(=O)(=O)N2CCC3(CC2)OCCO3)cc1 | -9.02
CN(C)S(=O)(=O)Oc1ccccc1C(=O)Nc1ccc(F)cc1F | 2.34
NC(=O)CSc1nnc(-c2cc(-c3cccs3)nc3ccccc23)o1 | 6.01
O=C(CCN1C(=O)/C(=C\c2ccccc2F)SC1=S)Nc1ccc(C(=O)O)c(O)c1 | -2.08
CCC(C)NC(=O)CC(c1ccccc1)c1cc(C)ccc1O (centres unmarked) | -5.6
COCCNC(=O)C(c1ccc(C)cc1)N(C(=O)CCC(=O)Nc1ccccn1)c1cccc(C)c1 (centres unmarked) | 3.26
CC(C)(CO)Nc1ncnc2onc(-c3ccc(F)cc3)c12 | 8.52
Cc1cc(NS(=O)(=O)c2ccc(NC(=O)c3cnc4scc(C)n4c3=O)cc2)nc(C)n1 | -7.41
Cc1ccc(NC(=S)N(Cc2cccc(Br)c2)CC2CCC(C(=O)O)CC2)cc1 (centres unmarked) | 6.73
CC(=O)Nc1ncc(Cc2cc(Cl)ccc2Cl)s1 | -1.4
CSCC(C)N1CCC(N2CCC(C(=O)NCc3ccccn3)CC2)CC1 (centres unmarked) | -9.59
COc1cccc(NC(=O)CN2C(=O)CSc3nc(C)cc(C)c32)c1 | 8.83
O=C(Cc1ccccc1)Nc1ccc(N2CCN(Cc3ccccc3F)CC2)cc1 | 0.561
CCCC(=O)c1cc2c(cc1NC(=O)c1ccccc1F)OCCO2 | 7.12
Oc1ccc(/C=N/n2c(COc3ccccc3)n[nH]c2=S)c(O)c1 | 16.6
Cc1cc(N/C(=N/S(=O)(=O)c2cc(F)ccc2F)c2ccccc2)n(-c2ccccc2)n1 | 36

SMILES | hERG current change (%, negative = inhibition) at 10uM [%]
CCCC12CN3CN(C1)CC(CCC)(C3)C2O (centres unmarked) | -5.84
COc1ccc(N=C2C(=O)Nc3ccc(C)c(Br)c32)cc1 | 1.53
CCCc1cc(C(=O)NNC(=S)NC2CCCCC2)cs1 | 8.95
CCn1cc(CN2CCN(Cc3cccc(OC)c3)C(CCO)C2)c(C)n1 (centres unmarked) | -14.4
COc1ccc(O)c(/C=N/NC(=O)CN2CCS(=O)(=O)CC2)c1 | 18.7
COc1cc(C)ccc1OCCCOc1c(Cl)cccc1Cl | 7.68
Cn1cccc1C(=O)N/N=C/c1c(Cl)cccc1Cl | 3.26
O=C(OCCN1C(=O)c2ccccc2C1=O)c1cccc(OC(F)F)c1 | -6.56
Cc1nc2c(C#N)cnn2c2c1CCNN2C | -1.38
[O-][n+]1onc2c1CCc1nnccc1-2 | 9.85
O=C1CCCC2=C1C(c1cccs1)n1ncnc1N2 (centres unmarked) | 4.95
O=C(c1sc2cc([N+](=O)[O-])ccc2c1Cl)N1CCOCC1 | -32.8
CCN(CC)CCCNC(=S)N(Cc1cccnc1)Cc1cc2cc(C)cc(C)c2[nH]c1=O | 22.9
O=C(NCc1ccco1)C1CCN(Cc2ccc(F)cc2)CC1.O=C(O)C(=O)O | -15.4
COC(=O)C1=C(c2ccccc2OCc2ccccc2)C[C@@H]2CC[C@H]1N2C(=O)NCCc1ccc(F)cc1 | 5.49
Cc1ccc(CNC(=O)c2cc(=O)c3ccccc3o2)cc1 | 18.8
Cc1ccc(NC(=O)c2ccc(CSc3ccccn3)cc2)c(O)c1 | 18.4
CC(C)(C)c1ccc(C(=O)NN2C(=O)CSC2=S)cc1 | 12.9
COC(=O)CSc1nc2nc(C)c(Br)cc2[nH]1 | 0.94
CCCC(=O)OCC(=O)Nc1ccc(OC(F)F)cc1 | -18.1

Source: PMC4336329 (PLoS ONE, 2015)
